What was measured:
[1] = tested on: COLO 205 tumour cells xenografted into nude mice; experiment: In vivo COLO 205 xenograft study; set-up: species or system athymic NMRI nude mice
Experimental: Female athymic NMRI nude mice, 6-8 weeks old, are inoculated subcutaneously in the right flank with the COLO 205 human colon tumour-derived cell line (ATCC #CCL-222) (5×10^6 in 100 μl Ringer solution). Tumour cell growth is assessed by measuring tumour volume three times per week using calipers and the formula: π/6× larger diameter×(smaller diameter)^2. Treatment is administered intravenously to groups of ten mice and commenced when tumours have developed to a size of between 130 to 270 mm^3. The treatment schedule consists of two times weekly intravenous infusions of vehicle and antibody 40186 at a dose of 25 mg/kg for two treatment cycles. In combinations of antibody with 5FU, a dose of 50 mg/kg 5FU is administered weekly. The study is terminated when tumours reached an average size of 1500 mm^3. All animal experiments are performed according to the legal requirements in Austria as well as guidelines of the American Association for Laboratory Animal Science (AALAS).

[2] = Terminal half life in cynomolgus monkeys; format: in vivo; details: cynomolgus monkey plasma, n = 3
Experimental: Single intravenous (bolus) antibody administrations of 1 and 10 mg/kg (in a formulation containing 25 mM Na citrate pH 6, 115 mM NaCl, 0.02% Polysorbate 20 (Tween)) are given to cynomolgus monkeys (n=3 for each administrated dose). 0.5, 2, 8, 24, 48, 72, 168, 336 and 504 hours after each application a blood sample is taken and the human antibody concentration in the plasma determined by ELISA.

B1: antibody 40186: fully human IgG1/Igλ antibody binding IGF-1 and IGF-2; heavy chain SEQ ID NO:25, light chain SEQ ID NO:26 (antibody, listed as Homo sapiens)
heavy: QVELVESGGGLVQPGGSLRLSCAASGFTFSNYWMHWVRQAPGKGLEWVSGISGWSSWTYYADSVKGRFTISRDNSKNTLYLQMNSLRAEDTAVYYCARFGIDAYTKVYFDYWGQGTLVTVSS[in this place human IgG1 constant region]
light: DIELTQPPSVSVAPGQTARISCSGDNIPLKYVSWYQQKPGQAPVLVIHDDNKRPSGIPERFSGSNSGNTATLTISGTQAEDEADYYCQSWASTGVVFGGGTKLTVLGQPKAAPSVTLFPPSSEELQANKATLVCLISDFYPGAVTVAWKGDSSPVKAGVETTTPSKQSNNKYAASSYLSLTPEQWKSHRSYSCQVTHEGSTVEKTVAPTECS
decrease in median tumour growth ([1]; 25 mg/kg 40186 in combination with 50 mg/kg 5FU once weekly, FIG. 7): 60% | decrease in median tumour growth compared with vehicle ([1]; 25 mg/kg antibody twice per week i.v., nude mice, FIG. 6): 45% | Terminal Half Life ([2]; 1 mg/kg single intravenous (bolus)): 10.7 ± 1.6 days | Terminal Half Life ([2]; 10 mg/kg single intravenous (bolus)): 12 ± 1.4 days

— patent US8580254B2, “Anti-IGF antibodies” (Boehringer Ingelheim International GmbH, priority 2007, dated 2013)
